According to the supplement of paper PMC11417369:
The list shows a part of the results.

The sequences below were run on PfHDP1 homeodomain (GST-tagged) (assay: gcPBM binding intensity (ln(normalized median fluorescence intensity)); higher = stronger DNA binding).
Summary of the method: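 Binding intensity is defined as the maximum Masliner-normalised natural-log median intensity across replicate spots for either probe orientation. It was measured on an Agilent 4 × 180k array of primer-extended double-stranded 36-bp intergenic genomic probes and negative controls, to which GST-tagged P. falciparum DNA-binding domains made in E. coli were applied for 1 h in 1× PBS with 1% milk, 0.2 mg/ml BSA, 0.5% salmon testes DNA and 0.03% Triton X-100. Detection was by Alexa488 anti-GST antibody and scanning at 488 nm.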

Sequence	gcPBM binding intensity (ln)
ATATTTTTTTTTCTTTCGCACACGTGAAAGAATTTC [CACACA_site8636]	7.03
AAAATAAAAATTAACTGTACATACATTATTCAAATT [XGTACX_site6106]	6.11
TACAAACAAACACATAGCAATATATGTTATCAAAAA [XGTACX_negctrl_site1]	6.32
AAGGAAATAATTAAATGTACAAAAAAAAAAAAAATT [XGTACX_site562]	6.27
TTTTTTTTGTTATGAACATGCAAATTAAAATATAAT [TGCATGCA_site954]	6.42
TAAATACATAAAAATTGTACACATTGTTTTCTCTTT [XGTACX_site6435]	6.49
TACTTTTCTTAAAGATGTACGTTTTAAAAATAAAAT [XGTACX_site14]	6.08
CAACAATTTCGTCATACACACATTCAGAATATATAT [CACACA_site2370]	6.74
TCCTTATTTTGCAGGAGTACCATTTTTTAAAAATAC [XGTACX_site5968]	6.67
ACAATTACTTATTTTAATTTTTTTAATCTATTGATT [CACACA_negctrl_site967]	6.1
AATAACAATTATAAAAGTACAGATTTTTATTTCTAA [XGTACX_site5746]	6
ATTTATAATTTTTGAGCACACACAAGCATATATATA [CACACA_site8531]	7.09
ACAATGATAGTGTAAAGTACATATATATAAAAAAAT [XGTACX_site5928]	7.13
TGAACTCATAGGAAAACACACATATGTGCAATATAT [CACACA_site6231]	11.3
TGTTATTATTAAGACACACACACAAAAAAAAAAAAA [CACACA_site1481]	6.51
TTTATAATATGTTATACATGCAGGTACCTTTTTGTA [TGCATGCA_site746]	6.63
AAGATTAAACATTGCACACAGAAATATATTTTCTAT [CACACA_site2374]	9.55
TTGTTCATCTTTTTTTTTTTTTTTTTTTTTTAAATC [CACACA_negctrl_site191]	5.69
TTTCAATGTGACACGTGTCCGTAAAATTACATAATT [XGTACX_site7073]	6.61
ATTAATAAAAGATAAAGTACAAATCGGAAAATGAAT [XGTACX_site7846]	6.99
ATCTATATTATTTCTACACACATATCTATAATATGT [CACACA_site7561]	7
TTCTTTTTTTTTTTTTTTTTTTTATAGTACAAAAAA [TGCATGCA_negctrl_site450]	5.88

Sequence	gcPBM binding intensity (ln)
ATATCAAATAGACAAACACACAAAGGAAGAGTGAAA [CACACA_site3921]	6.76
TTTTTTTTTTTGTGTGCATGTGCTAGGAAAGGTAGG [TGCATGCA_site330]	7.93
TTTTAATGAAATATCAAAAAAATTTATGATTTCAAA [GTGCAC_negctrl_site662]	5.52
AATAATATATAAGAAAGTACAAAAAAATAAAATAAA [XGTACX_site3302]	6.8
AAAAAGAAAAAACTTACACACATATATACACCCATG [CACACA_site8079]	6.98
GAGAAATTTATACATACACACATATAAATATTATAG [CACACA_site7819]	6.45
CTTTGCATTACGAACATACACACAGAATAACTGAAA [CACACA_site3024]	6.95
TAGAAAAAAATAGATGCATGCAATGAATGAATAATA [TGCATGCA_site14]	7.03
TTTCTATTACGAACGTGTACATACATTATTCTTAAA [XGTACX_site5816]	6.83
ATATATTTTGGGGACTTTTTAAAAAAGAAGTATTAA [TGCATGCA_negctrl_site337]	6.79
TTTTTGTTAATAAGTATGCACTATCTCATTTTTGTA	8.3
TAGTAGTATTCATCCAGTACATATAAATGTATAATA [XGTACX_site7552]	6.23
CTATACTATGAAAAGTGTACGAATAGCTAGCTATTT [XGTACX_site5927]	6.39
GAGCATTACACATATACACACATATAAATAAACATA [CACACA_site7315]	7.32
CAAGAATTAAAATAAAGTACAAAAGTAACAACTTTT [XGTACX_site1474]	5.84
AAAAAAAAGGAAAAGGGTACAAAACCATACTTACAT [XGTACX_site4783]	6.24
ATTAGTGACATTATTACACACAAAAGAAAACAGAAA [CACACA_site3984]	7.06
TGAATCTATATACAGGTGCGTAAAAAATAACTTATA	7.02
ATGATAGTAATTAATAGTACTTTTTTTGATACAAAA [XGTACX_site4288]	6.01
TCGTGTTTTAAAAAAATGAAGAAAAGTAAAAAAAAA [XGTACX_negctrl_site23]	6.47
ATTAAATGTATGACTTGTACATAAAATAAAAAAAAA [XGTACX_site6555]	6.56
TAATATGAATATATATGTACATACAATTTGTTATAT [XGTACX_site5815]	6.55
